The other results are listed elsewhere or left out. At the low end of the ranking, values are background and their order means little.
Molecular target: GST-SBP-SLBP (stem-loop binding protein) (UniProt Q14493)
Test: targeted RNA Bind-n-Seq;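 note: DESeq read counts versus GST-SBP nonspecific binding control pulldown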
Details: RBNS binding buffer: 25 mM Tris pH 7.5, 150 mM KCl, 3 mM MgCl2, 0.1% Tween, 0.5 mg/mL BSA, 1 mM DTT; 27 nM protein, 750 pM RNA pool; temperature not stated; high values mean tight binding

| Sequence | binding signal (log2 fold change) |
| --- | --- |
| GGUCACGUCUCAAUCAACUCAUCCCCAGGAGUUUCCUCCUGCUAUUUCAACAGCUCGCAGUCAAG | 0.18 |
| GGUCACGUCUCAAUCAACUCUUCUUCCAGGGAAACCCCUGGCAAAUUCAACAGCUCGCAGUCAAG | -0.213 |
| GGUCACGUCUCAAUCAACUCAAUUCCCAGGGAAAUCCCUGGUUAUCUCAACAGCUCGCAGUCAAG | -0.164 |
| GGUCACGUCUCAAUCAACUCAAUCGAGGGGGGGAAAACCCCUUUACCCUCAAACUCAACAGCUCGCAGUCAAG | 0.147 |
| GGUCACGUCUCAAUCAACUCAUUCUCAGGAGUUUACUCCUGUUUAUUCAACAGCUCGCAGUCAAG | -0.0435 |
| GGUCACGUCUCAAUCAACUCUUCUCCCAGGGAAACCCCUGGCAAUGUCAACAGCUCGCAGUCAAG | -0.028 |
| GGUCACGUCUCAAUCAACUCAUUCCCAGGAGUUUUCUCCUGCUAAUUCAACAGCUCGCAGUCAAG | -0.0684 |
| GGUCACGUCUCAAUCAACUCUAUCCCAGGAGUUUACUCCUGCAUUCUCAACAGCUCGCAGUCAAG | 0.0896 |
| GGUCACGUCUCAAUCAACUCUUUCCCCAGGGAAACCCCUGGUAUUCUCAACAGCUCGCAGUCAAG | 0.0621 |
| GGUCACGUCUCAAUCAACUCGCAAGAGGGGGGGAAAACCCCUUUACCCUCCAUUUCAACAGCUCGCAGUCAAG | -0.189 |
| GGUCACGUCUCAAUCAACUCUCUAGAGGGGGGGAAAACCCCUUUGCCCUCGUUAUCAACAGCUCGCAGUCAAG | -0.416 |
| GGUCACGUCUCAAUCAACUCAAUCUCAGGAGUUUCCUCCUGCAUUCUCAACAGCUCGCAGUCAAG | 0.203 |
| GGUCACGUCUCAAUCAACUCAACUUCCAGGGAAAGCCCUGGUUAUUUCAACAGCUCGCAGUCAAG | 0.0539 |
| GGUCACGUCUCAAUCAACUCAUUCCCCAGGGAAAGCCCUGGCUAUUUCAACAGCUCGCAGUCAAG | 0.0115 |
| GGUCACGUCUCAAUCAACUCAUCUCCCAGGGAAACCCCUGGCAAACUCAACAGCUCGCAGUCAAG | -0.225 |
| GGUCACGUCUCAAUCAACUCAUCCCCCAGGGAAAUCCCUGGUAUACUCAACAGCUCGCAGUCAAG | 0.0698 |
| GGUCACGUCUCAAUCAACUCUAUUCCAGGAGUUUUCUCCUGCUAUUUCAACAGCUCGCAGUCAAG | -0.242 |
| GGUCACGUCUCAAUCAACUCAAUUCCAGGAGUUUGCUCCUGCUUUUUCAACAGCUCGCAGUCAAG | 0.00777 |
| GGUCACGUCUCAAUCAACUCUAGUCCCAGGGAAACCCCUGGCAAUCUCAACAGCUCGCAGUCAAG | -0.177 |
| GGUCACGUCUCAAUCAACUCUUUUUCCAGGGAAAACCCUGGCUAACUCAACAGCUCGCAGUCAAG | -0.0647 |
| GGUCACGUCUCAAUCAACUCCGCAGAGGGGGGGAAAACCCCUUUACCCUCCAUUUCAACAGCUCGCAGUCAAG | -0.0209 |
| GGUCACGUCUCAAUCAACUCAAUUUCAGGAGUUUUCUCCUGCAUGUUCAACAGCUCGCAGUCAAG | 0.0789 |
| GGUCACGUCUCAAUCAACUCUAAAGAGGGGGGGAAAACCCCUUUACCCUCAAAUUCAACAGCUCGCAGUCAAG | 0.00196 |
| GGUCACGUCUCAAUCAACUCUUCUUCAGGAGUUUACUCCUGCUUACUCAACAGCUCGCAGUCAAG | -0.00474 |

| Sequence | binding signal (log2 fold change) |
| --- | --- |
| GGUCACGUCUCAAUCAACUCCCUAGAGGGGGGGAAAACCCCUUUGCCCUCAUCUUCAACAGCUCGCAGUCAAG | -0.427 |
| GGUCACGUCUCAAUCAACUCAUUUUCCAGGGAAACCCCUGGUUUAUUCAACAGCUCGCAGUCAAG | -0.102 |
| GGUCACGUCUCAAUCAACUCAUCUUCAGGAGUUUCCUCCUGUUUACUCAACAGCUCGCAGUCAAG | 0.025 |
| GGUCACGUCUCAAUCAACUCCUUAGAGGGGGGGAAAACCCCUUUACCCUCAAUAUCAACAGCUCGCAGUCAAG | -0.212 |
| GGUCACGUCUCAAUCAACUCACAAGAGGGGGGGAAAACCCCUUUACCCUCACUAUCAACAGCUCGCAGUCAAG | 0.144 |
| GGUCACGUCUCAAUCAACUCAAUCCCAGGAGUUUACUCCUGCAAAGUCAACAGCUCGCAGUCAAG | 0.0328 |
| GGUCACGUCUCAAUCAACUCCUAAGAGGGGGGGAAAACCCCUUUGCCCUCCAAUUCAACAGCUCGCAGUCAAG | 0.279 |
| GGUCACGUCUCAAUCAACUCAUCUCCAGGAGUUUGCUCCUGCAUUUUCAACAGCUCGCAGUCAAG | 0.149 |
| GGUCACGUCUCAAUCAACUCUUUUCCCAGGGAAACCCCUGGUAAUUUCAACAGCUCGCAGUCAAG | -0.0857 |
| GGUCACGUCUCAAUCAACUCAACUCCAGGAGUUUGCUCCUGCUUUUUCAACAGCUCGCAGUCAAG | -0.0542 |
| GGUCACGUCUCAAUCAACUCUUCCUCAGGAGUUUCCUCCUGCAUACUCAACAGCUCGCAGUCAAG | 0.271 |
| GGUCACGUCUCAAUCAACUCUUCCCCAGGAGUUUUCUCCUGUUAUUUCAACAGCUCGCAGUCAAG | 0.0302 |
| GGUCACGUCUCAAUCAACUCAUCUCCCAGGGAAAUCCCUGGUUAUCUCAACAGCUCGCAGUCAAG | 0.151 |
| GGUCACGUCUCAAUCAACUCAUCCUCAGGAGUUUACUCCUGUAUACUCAACAGCUCGCAGUCAAG | -0.0396 |
| GGUCACGUCUCAAUCAACUCAAUCUCAGGAGUUUACUCCUGUAAAUUCAACAGCUCGCAGUCAAG | 0.028 |
| GGUCACGUCUCAAUCAACUCUCUCGAGGGGGGGAAAACCCCUUUACCCUCACUUUCAACAGCUCGCAGUCAAG | 0.0987 |
| GGUCACGUCUCAAUCAACUCAAACGAGGGGGGGAAAACCCCUUUACCCUCAAUUUCAACAGCUCGCAGUCAAG | -0.455 |
| GGUCACGUCUCAAUCAACUCAUCCCCAGGAGUUUUCUCCUGUUAACUCAACAGCUCGCAGUCAAG | 0.125 |
| GGUCACGUCUCAAUCAACUCAGUCUCCAGGGAAACCCCUGGCUAAUUCAACAGCUCGCAGUCAAG | -0.224 |
| GGUCACGUCUCAAUCAACUCAAGUCCAGGAGUUUACUCCUGCUAAUUCAACAGCUCGCAGUCAAG | 0.0169 |
| GGUCACGUCUCAAUCAACUCAUCCUCAGGAGUUUUCUCCUGUAAACUCAACAGCUCGCAGUCAAG | 0.0461 |
| GGUCACGUCUCAAUCAACUCUUUCUCCAGGGAAACCCCUGGCAUUCUCAACAGCUCGCAGUCAAG | 0.0446 |
| GGUCACGUCUCAAUCAACUCUAUUUCCAGGGAAAUCCCUGGCUUUUUCAACAGCUCGCAGUCAAG | -0.149 |
